From article PMC4336329 (PLoS ONE, 2015)
Among all 310,000 compounds or so, about 2,200 (0.71%) showed an effect of 50% or more. The effect is printed as a negative number. Some of the results follow.

molecular target: human ether-à-go-go-related gene (hERG) potassium channel (human, UniProt Q12809); experiment: primary screen, population patch clamp on CHO cells stably expressing hERG
Sequence (Q12809 whole entry, looked up): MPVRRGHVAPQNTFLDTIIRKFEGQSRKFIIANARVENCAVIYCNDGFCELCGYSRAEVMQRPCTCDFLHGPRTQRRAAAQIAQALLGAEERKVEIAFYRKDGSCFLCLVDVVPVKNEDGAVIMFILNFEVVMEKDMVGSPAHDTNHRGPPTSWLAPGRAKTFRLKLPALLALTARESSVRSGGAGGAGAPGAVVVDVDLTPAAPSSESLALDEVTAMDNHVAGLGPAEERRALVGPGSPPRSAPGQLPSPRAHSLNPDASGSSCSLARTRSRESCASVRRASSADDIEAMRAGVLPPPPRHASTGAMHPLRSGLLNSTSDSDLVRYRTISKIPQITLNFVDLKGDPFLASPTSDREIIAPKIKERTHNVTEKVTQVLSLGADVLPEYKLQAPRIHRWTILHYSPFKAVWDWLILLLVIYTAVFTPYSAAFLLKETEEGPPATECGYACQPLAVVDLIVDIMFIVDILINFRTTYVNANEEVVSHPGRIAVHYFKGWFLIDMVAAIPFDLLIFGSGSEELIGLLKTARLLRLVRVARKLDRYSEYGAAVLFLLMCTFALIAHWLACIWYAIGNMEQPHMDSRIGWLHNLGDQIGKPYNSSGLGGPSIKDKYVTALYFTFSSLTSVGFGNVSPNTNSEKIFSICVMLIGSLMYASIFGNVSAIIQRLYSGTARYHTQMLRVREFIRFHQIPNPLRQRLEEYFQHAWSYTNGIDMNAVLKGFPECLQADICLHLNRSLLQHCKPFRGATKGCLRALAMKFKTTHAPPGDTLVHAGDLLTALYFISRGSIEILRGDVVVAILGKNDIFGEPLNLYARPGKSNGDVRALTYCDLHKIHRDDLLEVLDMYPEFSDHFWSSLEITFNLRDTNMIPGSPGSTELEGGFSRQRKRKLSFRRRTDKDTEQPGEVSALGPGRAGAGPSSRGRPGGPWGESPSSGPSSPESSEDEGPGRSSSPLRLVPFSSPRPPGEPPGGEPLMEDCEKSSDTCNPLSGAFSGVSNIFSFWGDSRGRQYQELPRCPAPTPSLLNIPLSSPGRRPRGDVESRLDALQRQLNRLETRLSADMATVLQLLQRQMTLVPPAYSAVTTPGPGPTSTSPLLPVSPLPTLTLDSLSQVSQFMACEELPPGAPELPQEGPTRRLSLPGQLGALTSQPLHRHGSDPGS

Structure (SMILES)	hERG current change (%, negative = inhibition) at 1uM [%]
O=C(Nc1ccc(Cl)c(Cl)c1)Nc1ccccc1O	9.91
CCN(CC)C(=O)CN1C(=O)C(=O)c2ccccc21	19.7
CC1(C)Cc2c(sc(NC(=O)C(=O)NCCCN3CCOCC3)c2C(N)=O)CO1	8.43
O=C(c1ccccc1)c1nccn1-c1ccc(Cl)nn1	11.4
CC1=C/C(=C/N(C)C)C(=O)O1	15
CCn1c(=O)cc(SCC(=O)NCc2cccnc2)c2ccccc21	13.3
COc1cc(C)c(COc2ncnc3ccccc23)cc1OC	3.66
O=C1[C@@H]2C(c3cccnc3)=NO[C@@H]2C(=O)N1c1ccc(Cl)cc1Cl	11.2
CCOC(=O)CC1C(=O)NCCN1C(=O)c1cc2c(=O)n3cccc(C)c3nc2s1 (stereo not drawn)	13.2
CC(C)C(=O)Nc1nc2cc3c(cc2s1)OCCO3	7.01
O=C(/C=C/c1ccc2c(c1)OCCO2)c1ccc(O)cc1	4.76
Cc1cccc(NC(=O)c2nc[nH]c2C(=O)Nc2cccc(C)c2)c1	15.9
CCNc1nnc(-c2ccncc2)s1	11.1
COC(=O)c1ccc(C(=O)OC)c(NC(=O)COC(=O)CCOc2ccc(C)cc2)c1	13.2
COc1cccc(CNC(=O)C(C)n2nc(C)n3c(cc4occc43)c2=O)c1 (stereo not drawn)	4.31
Cl.Cn1nnc(C(O)CNCc2ccc(Cl)cc2)n1 (stereo not drawn)	8.91
CC1CC(C)CN(C(=O)CSc2nc(N)cc(=O)[nH]2)C1 (stereo not drawn)	-1.76
Cc1ccc(-c2nnc(OCc3cccnc3)c3ccccc23)cc1	-7.6
CC1CN(S(=O)(=O)c2ccc(NC(=O)CCCN3C(=O)c4ccccc4C3=O)cc2)CC(C)O1 (stereo not drawn)	-0.596

Structure (SMILES)	hERG current change (%, negative = inhibition) at 1uM [%]
CCc1ccc(NC(=O)N(C2CCCCC2)C(C)c2cccnc2)cc1 (stereo not drawn)	-0.814
O=C(NCCC1CCCCN1S(=O)(=O)c1ccccc1)C(=O)Nc1ccc(F)cc1F (stereo not drawn)	7.89
CCN(CC)CCNC(C(=O)Nc1ccc([N+](=O)[O-])cc1Br)c1ccccc1 (stereo not drawn)	-86.5
CCc1ccc(NC(=O)CNS(=O)(=O)c2c(C)noc2C)cc1	10.6
Cc1c(OCC(=O)OC(C)(C)C)ccc2c3c(c(=O)oc12)CCC3	14.4
COc1ccc(-c2cn3c(C)c(C(=O)N4CCN(c5ccc(F)cc5)CC4)sc3n2)cc1	3.41
CCCC1c2ccc(C)n2CCN1C(=O)Nc1ccc(F)cc1 (stereo not drawn)	8.71
COc1ccc(OC)c2c1C(=O)C(Cl)=C(Cl)C2=O	12.7
Cc1cc(C)c(C)c(S(=O)(=O)N2C(=S)NC(=O)C2C(C)C)c1C (stereo not drawn)	5.33
CC1(C)CC(N2CCC(=O)N(C3CC(C)(C)NC(C)(C)C3)C2)CC(C)(C)N1	-8.68
CCN(C(=O)c1cc2c(=O)n3cccc(C)c3nc2n1CCCOC)C1CCCCC1	4.12
Cc1nn(-c2ccccc2)nc1C(=O)c1c(C)[nH]n(-c2ccccc2)c1=O	3.21
O=C(N/N=C/c1ccc(OC(=O)c2ccccc2Cl)cc1)c1cc(O)cc(O)c1	-16.1
CC(=O)N1CCN(S(=O)(=O)c2ccc3c(c2)OCCO3)CC1	10.3
Cc1nc2ccccn2c1C(=O)NNS(=O)(=O)c1ccc(C(C)(C)C)cc1	10.9
C#CCOc1c(Cl)cc(C2C3=C(CCCC3=O)N(CC(=O)O)C3=C2C(=O)CCC3)cc1OC	1.11
CCOC(=O)c1ccc(NC(=O)c2ccc(NC(=O)c3ccccc3)cc2)cc1	7.31
CCC(CC)=NNc1ccc([N+](=O)[O-])cc1[N+](=O)[O-]	9.64
COc1cccc(C(=O)C2CCCN(C(=O)c3ccc(C#CC(C)(C)O)cc3)C2)c1 (stereo not drawn)	6.92

Structure (SMILES)	hERG current change (%, negative = inhibition) at 1uM [%]
CN(c1ccccc1C(=O)N1CCOCC1)S(C)(=O)=O	12.9
CC(=O)Nc1ccc(C(=O)CSc2nc3ccccc3n2CC(=O)N2CCCC2)cc1	5.57
NC(=O)c1ccccc1NC(=O)c1ccccc1S(=O)(=O)c1ccccc1[N+](=O)[O-]	11
c1nc(N2CCCCC2)c2[nH]cnc2n1	8.35
CCc1ccc2oc(=O)cc(CN3CCN(Cc4ccccc4)CC3)c2c1	-17.6
CCCCCc1ccc(C2=NNC(=O)CC2)cc1	13.7
CC(=O)c1sc(NC(C)c2ccccc2)nc1C (stereo not drawn)	23.1
CC(C)C1NCCc2c1sc1ccccc21 (stereo not drawn)	7.83
Cc1c(C(=O)N(C)C2CC(C)(C)NC(C)(C)C2)oc2c(F)cccc12	7.59
Cc1ccc(S(=O)(=O)NC(C)C(=O)Nc2ccc3c(c2)OCO3)cc1 (stereo not drawn)	16.5
CCOc1cc(N2CCOCC2)c(OCC)cc1NC(=O)c1nc2nc(C)cc(C)n2n1	15.5
CSCCC(NS(=O)(=O)/C=C/c1ccccc1)C(=O)NCCc1ccc(S(N)(=O)=O)cc1 (stereo not drawn)	2.03
CC1=NNC(=O)/C1=C\c1cn(-c2ccccc2)nc1-c1cccs1	9.8
COc1cccc(NC(=O)COC(=O)CCCc2c[nH]c3ccccc23)c1	8.32
COC(=O)c1ccc(C(c2c(C)[nH][nH]c2=O)c2c(C)[nH][nH]c2=O)cc1	14.5
Cc1ccc(NC(=O)CC2C(=O)NCCN2C(=O)c2ccc(F)cc2)cc1 (stereo not drawn)	-11.8
Cc1ccc(-c2nc(C(Cl)Cl)c3ccccc3n2)cc1	0.646
Clc1ccccc1-c1nnc(-c2ccccc2Cl)o1	4.59
Cc1oc(-c2ccc(Cl)cc2)cc1C(=O)O	17.6
